Source: PubChem BioAssay AID504333 (National Center for Advancing Translational Sciences (NCATS), 2011)
In all, about 360,000 compounds went through this assay and about 16,000 (4.4%) were called active. Inconclusive means that the source gave no clear call. Such entries were picked first, then a sample of the others. The call rests on the fitted dose curve; in most records, active means well fitted inhibition curve with a large enough effect; inconclusive means small, poorly fitted or top-dose-only effect; inactive means no such curve, though single readings can be large or run the other way. A potency beside an inconclusive call is a rough fit, not a confirmed value.

biological target: Bromodomain adjacent to zinc finger domain protein 2B (Homo sapiens) (UniProt Q9UIF8); experiment: qHTS Assay for Inhibitors of BAZ2B; conditions: AlphaScreen BAZ2B-H3K14Ac peptide displacement; series mostly up to 114 µM; further: nearly all actives have a fitted effect of over 60% in size
Method in brief: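 In this displacement format the biotinylated H3(5-23) peptide acetylated at Lys14 serves as ligand at 50 nM, with BAZ2B at 50 nM in PBS pH 7.4 containing 0.01% Tween-20. Donor and acceptor beads are 10 ug/mL final.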
Potency means the concentration at half of the fitted maximal effect; tags describe the fitted curve by direction and shape.

Sequence of UniProt Q9UIF8 (Q9UIF8 whole entry, looked up, the tested form may be a part): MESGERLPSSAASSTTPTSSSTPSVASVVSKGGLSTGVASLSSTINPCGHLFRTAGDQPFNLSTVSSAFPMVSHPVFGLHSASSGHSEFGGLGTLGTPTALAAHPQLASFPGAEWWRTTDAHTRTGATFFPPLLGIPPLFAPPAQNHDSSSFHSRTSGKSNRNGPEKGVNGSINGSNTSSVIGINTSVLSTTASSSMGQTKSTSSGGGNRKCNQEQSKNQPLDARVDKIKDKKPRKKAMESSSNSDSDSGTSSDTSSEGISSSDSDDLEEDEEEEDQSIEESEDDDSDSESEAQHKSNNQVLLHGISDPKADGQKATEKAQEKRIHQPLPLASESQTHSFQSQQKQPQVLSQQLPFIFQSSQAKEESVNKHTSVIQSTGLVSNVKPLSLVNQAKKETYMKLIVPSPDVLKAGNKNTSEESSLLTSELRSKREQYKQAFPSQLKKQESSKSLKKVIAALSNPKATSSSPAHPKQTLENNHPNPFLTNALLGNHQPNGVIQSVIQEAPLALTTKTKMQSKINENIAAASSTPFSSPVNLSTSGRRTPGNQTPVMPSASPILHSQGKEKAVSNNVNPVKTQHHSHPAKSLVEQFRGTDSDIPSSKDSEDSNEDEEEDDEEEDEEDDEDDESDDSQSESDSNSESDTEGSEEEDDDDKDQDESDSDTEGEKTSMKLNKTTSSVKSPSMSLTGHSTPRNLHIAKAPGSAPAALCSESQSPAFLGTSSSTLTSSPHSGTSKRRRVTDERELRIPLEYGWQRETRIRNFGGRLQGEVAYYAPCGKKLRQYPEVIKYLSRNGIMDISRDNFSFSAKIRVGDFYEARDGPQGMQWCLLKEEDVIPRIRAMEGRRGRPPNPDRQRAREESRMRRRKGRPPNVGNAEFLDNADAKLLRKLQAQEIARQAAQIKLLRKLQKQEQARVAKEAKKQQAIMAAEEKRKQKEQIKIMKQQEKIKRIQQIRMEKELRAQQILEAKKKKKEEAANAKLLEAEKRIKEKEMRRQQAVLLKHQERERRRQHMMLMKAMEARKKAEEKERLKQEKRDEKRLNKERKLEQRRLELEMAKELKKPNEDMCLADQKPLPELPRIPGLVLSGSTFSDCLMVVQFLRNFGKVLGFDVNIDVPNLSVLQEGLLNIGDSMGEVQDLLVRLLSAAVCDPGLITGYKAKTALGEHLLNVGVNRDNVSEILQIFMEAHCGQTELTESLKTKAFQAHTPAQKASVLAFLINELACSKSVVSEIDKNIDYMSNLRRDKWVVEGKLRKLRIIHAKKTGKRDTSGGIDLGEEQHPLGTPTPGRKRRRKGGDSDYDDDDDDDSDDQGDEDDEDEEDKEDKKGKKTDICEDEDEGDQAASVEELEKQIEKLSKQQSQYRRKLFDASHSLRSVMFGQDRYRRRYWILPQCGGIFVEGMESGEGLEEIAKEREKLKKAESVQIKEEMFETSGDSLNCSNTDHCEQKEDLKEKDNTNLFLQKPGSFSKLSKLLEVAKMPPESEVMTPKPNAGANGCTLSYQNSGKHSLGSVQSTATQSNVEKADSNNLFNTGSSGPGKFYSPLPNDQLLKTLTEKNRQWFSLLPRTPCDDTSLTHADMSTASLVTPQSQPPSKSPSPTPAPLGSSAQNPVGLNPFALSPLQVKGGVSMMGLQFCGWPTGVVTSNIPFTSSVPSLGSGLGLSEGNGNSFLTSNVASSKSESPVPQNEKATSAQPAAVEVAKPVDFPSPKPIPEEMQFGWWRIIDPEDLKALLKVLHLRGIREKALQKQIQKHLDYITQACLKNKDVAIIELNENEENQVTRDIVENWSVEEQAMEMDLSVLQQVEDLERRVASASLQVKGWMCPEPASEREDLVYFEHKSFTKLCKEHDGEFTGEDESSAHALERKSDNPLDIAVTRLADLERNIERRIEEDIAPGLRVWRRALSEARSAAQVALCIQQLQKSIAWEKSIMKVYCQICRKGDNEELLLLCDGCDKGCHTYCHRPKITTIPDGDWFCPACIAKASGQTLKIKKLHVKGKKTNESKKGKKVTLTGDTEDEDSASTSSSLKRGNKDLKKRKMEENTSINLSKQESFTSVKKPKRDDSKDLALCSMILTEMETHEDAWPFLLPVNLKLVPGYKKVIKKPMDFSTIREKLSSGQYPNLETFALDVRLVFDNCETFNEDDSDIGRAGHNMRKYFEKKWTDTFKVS

| Structure (SMILES) | Potency |
| --- | --- |
| O=C(Nc1ccc(CN2CCCCC2)cc1)c1sc2ccccc2c1Cl | inactive |
| CCCOc1ccc(OCCNC2CCCC2)cc1 | inconclusive: 39.8 µM [inhibitor, single point] |
| COC(=O)/C(=C1/Oc2cc(C)oc(=O)c2S1)C(F)(F)F | inactive |
| Fc1ccccc1CSc1nnc(-c2cnccn2)n1Cc1ccco1 | inactive |
| CCCCSC1(SCCCC)N=C(N)C2(C#N)C(c3ccccc3)NC(C)=CC12C#N (stereo unspecified) | inconclusive: 89.1 µM [inhibitor, single point] |
| CC1Sc2ccc(S(=O)(=O)CCC(=O)N3CCN(c4cccc(Cl)c4)CC3)cc2NC1=O (stereo unspecified) | inconclusive: 79.4 µM [inhibitor, single point] |
| CCSc1ncc(Cl)c(C(=O)N2CCN(c3ccc(OC)cc3)CC2)n1 | inconclusive: 50.1 µM [inhibitor, partial curve] |
| COc1ccc(NCc2nnc(SCC(=O)N3CCCc4ccccc43)o2)cc1 | inconclusive: 44.7 µM [inhibitor, partial curve] |
| Cc1[nH]n(-c2ccccc2)c(=O)c1-c1ccc(Cl)cc1 | inactive |
| C#CCOCCOCCOCCNc1nc(N2CCN(C(=O)Cn3cc(CCCCN)nn3)CC2)nc(N2CCN(C(=O)[C@H](C(C)C)n3cc(CCO)nn3)CC2)n1 | inconclusive: 89.1 µM [inhibitor, single point] |
| Cc1ccc(-c2nnc(NC(=O)c3ccco3)o2)c(C)c1 | inconclusive: 79.4 µM [inhibitor, single point] |
| Cc1cc2cc(CNC(=O)c3ccc(S(=O)(=O)N(C)C)cc3)ccc2n1C | inactive |
| Cc1c(C(=O)N(C)c2cccc(C(F)(F)F)c2)sc2nc3n(c(=O)c12)CCCCC3 | active: 31.6 µM |
| COC(=O)c1cc(C(=O)N2CCN(c3cccc(C)c3C)CC2)cc([N+](=O)[O-])c1 | inconclusive: 28.2 µM [inhibitor, full curve] |
| O=C(NCCc1ccccc1Cl)C1CCN(S(=O)(=O)c2cccs2)CC1 | inactive |
| CCOc1ccc(CNC(=O)c2cnc3sc(N4CCC(C)CC4)nn3c2=O)cc1OC | inactive |
| Cc1cccc(C)c1NC(=S)NCCSc1ccc(Cl)cc1 | inactive |
| COc1ccc(C(CNC(=O)CCOc2ccccc2)N(C)C)cc1 (stereo unspecified) | inconclusive: 4.47 µM [inhibitor, full curve] |
| Cc1ccc(C)c(/C=C/C(=O)c2ccccc(=O)c2O)c1 | active: 56.2 µM |
| COc1ccc(-c2nc3ccccc3c(=O)o2)cc1OC | inconclusive: 79.4 µM [inhibitor, single point] |
| CCNc1nc(NCC)n2c(SCC(=O)Nc3ccccc3[N+](=O)[O-])nnc2n1 | inactive |
